Test results: the supplement of paper PMC4604168 (melanoma cell lines)
The list shows a part of the results. Many values rest on one well or one pass, so single values are uncertain.

What was measured:
Assay in all cases: cell count relative to DMSO control; melanoma cells; higher = more viable cells
Conditions in all cases: library dose: standard library concentration; 72 h
501Mel = test system: 501Mel
A101D = test system: A101D
A2058 = test system: A2058
A375 = test system: A375
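Note: cells treated in 1,536-well plates, then fixed and DAPI-stained, with nuclei counted from automated high-throughput microscope images.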

Row | SMILES | cell count (501Mel) [%] | cell count (A101D) [%] | cell count (A2058) [%] | cell count (A375) [%]
1 | Nc1cccc2c1CN(C1CCC(=O)NC1=O)C2=O (centres undefined) [lenalidomide] + COc1cc(N2CCC(N3CCN(C)CC3)CC2)ccc1Nc1ncc(Cl)c(Nc2ccccc2S(=O)(=O)C(C)C)n1 [NVP-TAE684] (first compound 5 µM, partner dose 0.4 µM) | 63.6 | 107 | 72.1 | 103
2 | COCC[n+]1c2c(n(Cc3cnccn3)c1C)C(=O)c1ccccc1C2=O + Cn1cc(/C=C2\C(=O)Nc3cccnc32)c2ccccc21 [GW441756] (first compound 0.002 µM, partner dose 2 µM) | 90.1 | 74.8 | 22.9 | 124
3 | O=C(CCCCCCC(=O)Nc1ccccc1)NO [vorinostat] + c1cc(-c2cnn3cc(-c4ccc(OCCN5CCCCC5)cc4)cnc23)ccn1 [Dorsomorphin] (first compound 0.4 µM, partner dose 2 µM) | 47.6 | 74.4 | 83.2 | 94.1
4 | O=C(CCCCCCC(=O)Nc1ccccc1)NO [vorinostat] + O=C(O)C(=O)Nc1sc2c(c1C(=O)O)CCNC2 [TCS401] (first compound 0.4 µM, partner dose 8.33333 µM) | 61.8 | 84.4 | 85.7 | 150
5 | Nc1cccc2c1CN(C1CCC(=O)NC1=O)C2=O (centres undefined) [lenalidomide] + CCc1ccc(CCOc2ccc(CC3SC(=O)NC3=O)cc2)nc1 [pioglitazone] (first compound 5 µM, partner dose 10 µM) | 88.7 | 93.1 | 103 | 117
6 | Cn1c(Nc2ccc(C(F)(F)F)cc2)nc2cc(Oc3ccnc(-c4ncc(C(F)(F)F)[nH]4)c3)ccc21 + c1cc(-c2cnn3cc(-c4ccc(OCCN5CCCCC5)cc4)cnc23)ccn1 [Dorsomorphin] (first compound 0.4 µM, partner dose 2 µM) | 42.2 | 60.8 | 61 | 72.5
7 | COCC[n+]1c2c(n(Cc3cnccn3)c1C)C(=O)c1ccccc1C2=O + COc1ccc2c(c1)CCC1C2CCC2(C)C(NCCCCCCN3C(=O)C=CC3=O)CCC12 [U73122] (first compound 0.002 µM, partner dose 2 µM) | 92.5 | 67.3 | 32.8 | 66.1
8 | OCc1c[nH]c2ccccc12 [Indole-3-carbinol] + O=c1cc(-c2cccc3c2Sc2ccccc2S3)oc(N2CCOCC2)c1 [KU55933] (first compound 4 µM, partner dose 5 µM) | 95.8 | 103 | 102 | 92.5
9 | COCC[n+]1c2c(n(Cc3cnccn3)c1C)C(=O)c1ccccc1C2=O + COc1ccc(COc2ccc(Cc3cnc(N)nc3N)cc2OC)cc1 [GW2580] (first compound 0.002 µM, partner dose 5 µM) | 77.2 | 118 | 77.6 | 80.9
10 | Nc1cccc2c1CN(C1CCC(=O)NC1=O)C2=O (centres undefined) [lenalidomide] + Oc1nc(-c2ccc(C(F)(F)F)cc2)nc2c1CSCC2 [XAV939] (first compound 5 µM, partner dose 10 µM) | 107 | 94.4 | 80.3 | 98.7
11 | Nc1cccc2c1CN(C1CCC(=O)NC1=O)C2=O (centres undefined) [lenalidomide] + c1cc(-c2cnn3cc(-c4ccc(OCCN5CCCCC5)cc4)cnc23)ccn1 [Dorsomorphin] (first compound 5 µM, partner dose 2 µM) | 67.4 | 83.4 | 72.6 | 101
12 | Nc1cccc2c1CN(C1CCC(=O)NC1=O)C2=O (centres undefined) [lenalidomide] + N#Cc1c(O)c2c(-c3ccc(-c4ccccc4O)cc3)csc2[nH]c1=O [A769662] (first compound 5 µM, partner dose 10 µM) | 105 | 88.2 | 97.2 | 122
13 | Nc1cccc2c1CN(C1CCC(=O)NC1=O)C2=O (centres undefined) [lenalidomide] + Cn1cc(/C=C2\C(=O)Nc3cccnc32)c2ccccc21 [GW441756] (first compound 5 µM, partner dose 2 µM) | 91.8 | 102 | 99.6 | 98.1
14 | Cn1c(Nc2ccc(C(F)(F)F)cc2)nc2cc(Oc3ccnc(-c4ncc(C(F)(F)F)[nH]4)c3)ccc21 + COC(=O)c1sccc1S(=O)(=O)Nc1ccc(Nc2ccccc2)cc1OC [GSK0660] (first compound 0.4 µM, partner dose 5 µM) | 39.4 | 57 | 71.9 | 77.7
15 | Clc1ccc(Nc2nnc(Cc3ccncc3)c3ccccc23)cc1 [vatalanib] + CCCCCCCCCCCC1=C(O)C(=O)C=C(O)C1=O [Embelin] (first compound 10 µM, partner dose 6 µM) | 96 | 74.9 | 97.2 | 98.5
16 | COCC[n+]1c2c(n(Cc3cnccn3)c1C)C(=O)c1ccccc1C2=O + CCc1ccc(CCOc2ccc(CC3SC(=O)NC3=O)cc2)nc1 [pioglitazone] (first compound 0.002 µM, partner dose 10 µM) | 77.9 | 75.4 | 21.9 | 80.1

Row | SMILES | cell count (501Mel) [%] | cell count (A101D) [%] | cell count (A2058) [%] | cell count (A375) [%]
17 | Clc1ccc(Nc2nnc(Cc3ccncc3)c3ccccc23)cc1 [vatalanib] + O=c1cc(-c2cccc3c2Sc2ccccc2S3)oc(N2CCOCC2)c1 [KU55933] (first compound 10 µM, partner dose 5 µM) | 76.8 | 60 | 76.6 | 118
18 | Clc1ccc(Nc2nnc(Cc3ccncc3)c3ccccc23)cc1 [vatalanib] + O=S(=O)(c1ccccc1)N(CC(F)(F)F)c1ccc(C(O)(C(F)(F)F)C(F)(F)F)cc1 [T0901317] (first compound 10 µM, partner dose 7 µM) | 61.2 | 73.2 | 85.1 | 86.3
19 | O=C(CCCCCCC(=O)Nc1ccccc1)NO [vorinostat] + CCc1ccc(CCOc2ccc(CC3SC(=O)NC3=O)cc2)nc1 [pioglitazone] (first compound 0.4 µM, partner dose 10 µM) | 61.8 | 84.4 | 82.9 | 105
20 | C#Cc1cccc(Nc2ncnc3cc(OCCOC)c(OCCOC)cc23)c1 [erlotinib] + COC(=O)c1sccc1S(=O)(=O)Nc1ccc(Nc2ccccc2)cc1OC [GSK0660] (first compound 4 µM, partner dose 5 µM) | 66.2 | 78.7 | 73.6 | 100
21 | Clc1ccc(Nc2nnc(Cc3ccncc3)c3ccccc23)cc1 [vatalanib] + O=C1NC(=O)/C(=C/c2ccc(-c3ccc(F)cc3O)o2)S1 [AS252424] (first compound 10 µM, partner dose 5 µM) | 64.1 | 97.4 | 88.7 | 111
22 | COCC[n+]1c2c(n(Cc3cnccn3)c1C)C(=O)c1ccccc1C2=O + Cc1cc([N+](=O)[O-])ccc1NS(=O)(=O)c1cc(Cl)ccc1Cl [FH535] (first compound 0.002 µM, partner dose 5 µM) | 71.3 | 70.9 | 39.1 | 82.7
23 | C#Cc1cccc(Nc2ncnc3cc(OCCOC)c(OCCOC)cc23)c1 [erlotinib] + Cn1cc(/C=C2\C(=O)Nc3cccnc32)c2ccccc21 [GW441756] (first compound 4 µM, partner dose 2 µM) | 72.2 | 60.4 | 94.1 | 133
24 | COCC[n+]1c2c(n(Cc3cnccn3)c1C)C(=O)c1ccccc1C2=O + Oc1nc(-c2ccc(C(F)(F)F)cc2)nc2c1CSCC2 [XAV939] (first compound 0.002 µM, partner dose 10 µM) | 68.2 | 70.3 | 21 | 95.1
25 | Nc1cccc2c1CN(C1CCC(=O)NC1=O)C2=O (centres undefined) [lenalidomide] + O=C(Nc1ccccc1)c1cc([N+](=O)[O-])ccc1Cl [GW9662] (first compound 5 µM, partner dose 10 µM) | 89.7 | 87.9 | 97.2 | 141
26 | Clc1ccc(Nc2nnc(Cc3ccncc3)c3ccccc23)cc1 [vatalanib] + Oc1nc(-c2ccc(C(F)(F)F)cc2)nc2c1CSCC2 [XAV939] (first compound 10 µM, partner dose 10 µM) | 64.3 | 90.2 | 75.3 | 78.1
27 | COCC[n+]1c2c(n(Cc3cnccn3)c1C)C(=O)c1ccccc1C2=O + COc1cc(N2CCC(N3CCN(C)CC3)CC2)ccc1Nc1ncc(Cl)c(Nc2ccccc2S(=O)(=O)C(C)C)n1 [NVP-TAE684] (first compound 0.002 µM, partner dose 0.4 µM) | 68.3 | 57.5 | 15.6 | 60.1
28 | COCC[n+]1c2c(n(Cc3cnccn3)c1C)C(=O)c1ccccc1C2=O + CC(C)CCN1c2nc(Nc3cc(F)c(O)c(F)c3)ncc2N(C)C(=O)C1C [BID1870] (first compound 0.002 µM, partner dose 1 µM) | 44.7 | 59.1 | 14.5 | 81.9
29 | O=C(CCCCCCC(=O)Nc1ccccc1)NO [vorinostat] + Cc1cc([N+](=O)[O-])ccc1NS(=O)(=O)c1cc(Cl)ccc1Cl [FH535] (first compound 0.4 µM, partner dose 5 µM) | 59 | 64 | 74.7 | 83.5
30 | O=C(CCCCCCC(=O)Nc1ccccc1)NO [vorinostat] + O=C(Nc1ccccc1)c1cc([N+](=O)[O-])ccc1Cl [GW9662] (first compound 0.4 µM, partner dose 10 µM) | 47.8 | 68.9 | 92.3 | 126
31 | OCc1c[nH]c2ccccc12 [Indole-3-carbinol] + COc1ccc(-c2ccc3c(N4CCOCC4)nc(N4C[C@@H](C)O[C@@H](C)C4)nc3n2)cc1CO [KU0063794] (first compound 4 µM, partner dose 0.1 µM) | 101 | 77 | 96.7 | 107
